{"source": "PubChem BioAssay AID686979", "about": "(National Center for Advancing Translational Sciences (NCATS), 2013)", "note": "The whole screen tested about 420,000 compounds, of which about 50,000 (12%) were called active. Inconclusive means that the source gave no clear call. Such entries were picked first, then a sample of the others. Calls follow the shape of the dose curve; as a rule, active = well fitted inhibition curve with a large enough effect; inconclusive = small, poorly fitted or top-dose-only effect; inactive = flat fitted curve, though single readings scatter. Potencies of inconclusive entries are left out as doubtful fits. Potency is read from the fitted curve at half-maximal effect; tags tell the direction and shape of the fitted curve."}
{"experiment": "qHTS for Inhibitors of human tyrosyl-DNA phosphodiesterase 1 (TDP1): qHTS in cells in presence of CPT; also: nearly all actives have a fitted effect of over 55% in size", "settings": "chicken DT40 Tdp1-/-;hTDP1 cells + 20 nM CPT, ATP luminescence, 48 h; series mostly up to 46.2 µM", "how_it_was_run": "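Chicken DT40 Tdp1-/- cells complemented with human TDP1, 400 cells/well, exposed to compounds plus 20 nM camptothecin for at least 48 h at 37 C; viability read as ATP content by CellTiter-Glo luminescence.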"}
{"smiles": "Fc1ccc(-c2nc3c(Cl)cc(C(F)(F)F)cn3c2Cc2ccccc2)cc1", "Potency": "inconclusive [inhibitor, full curve, poor fit]"}
{"smiles": "O=[N+]([O-])c1cc(-c2ccccc2)cc([N+](=O)[O-])c1O", "Potency": "inconclusive [inhibitor, single point]"}
{"smiles": "O=C(NN1CCOCC1)c1cnn2c(C(F)F)cc(-c3ccccc3)nc12", "Potency": "inconclusive [inhibitor, single point]"}
{"smiles": "COC(=O)C1=C(c2ccccc2)c2ccccc2S(=O)(=O)N1CC(=O)Nc1ccc(F)c(F)c1", "Potency": "inactive"}
{"smiles": "Cc1ccc(CNC(=O)Cn2c(=O)cc(C(F)(F)F)c3c(C)nn(C)c32)cc1", "Potency": "inactive"}
{"smiles": "Cc1c(/C=N/NC(=O)c2cccnc2)c2ccccc2n1Cc1ccccc1", "Potency": "active: 11.6 µM"}
{"smiles": "Cc1cc(Cl)c2oc(C(=O)N(C)Cc3ccon3)c(C)c2c1", "Potency": "inconclusive [inhibitor, single point]"}
{"smiles": "Cc1sc2ncn(CC(=O)N3CCN(c4ccc(F)cc4)CC3)c(=O)c2c1S(=O)(=O)N1CCC(C)CC1", "Potency": "inconclusive [inhibitor, single point]"}
{"smiles": "O=[N+]([O-])c1ccc2oc(C(O)c3cccc(Cl)c3)cc2c1", "note": "(stereo unspecified)", "Potency": "inconclusive [inhibitor, partial curve, poor fit]"}
{"smiles": "Cc1noc(C)c1C(=O)Nc1ccc(S(=O)(=O)N2CCCCC2)cc1", "Potency": "inconclusive [inhibitor, single point]"}
{"smiles": "Cc1cc(O)c(C(=O)/C=C/c2c(F)c(F)c(F)c(F)c2F)c(=O)o1", "Potency": "inconclusive [inhibitor, single point]"}
{"smiles": "O=C(c1noc2c1CCCC2)N1CCCCC1", "Potency": "inactive"}
{"smiles": "Cc1ccc(CNC(=O)C2CCN(S(=O)(=O)c3c(C)noc3/C=C/c3cccs3)CC2)cc1", "Potency": "active: 20.6 µM"}
{"smiles": "COc1ccc(NC(=O)C2CCCN(S(=O)(=O)c3cccc4cccnc34)C2)cc1OC", "note": "(stereo unspecified)", "Potency": "inconclusive [inhibitor, single point]"}
{"smiles": "Cc1ccc(Nc2nc(N)c3ccccc3n2)cc1Cl", "Potency": "active: 14.6 µM"}
{"smiles": "Nc1c(C(=O)Nc2ccccc2)sc2nc3c(c(-c4ccco4)c12)CCCC3", "Potency": "inconclusive [inhibitor, single point]"}
{"smiles": "CCOc1ccc(NC(=O)CN(c2ccc(CC)cc2)S(=O)(=O)c2c(C)noc2C)cc1", "Potency": "active: 11.6 µM"}
{"smiles": "Cc1cc(C)cc(Oc2ccc(C(F)(F)F)cc2C#N)c1", "Potency": "inactive"}
{"smiles": "CC(=O)Nc1c(I)c(C(=O)O)c(I)c(N(C)C(C)=O)c1I", "Potency": "inactive"}
{"smiles": "COc1ccc(Nc2nnc(-c3ccc(N4CCOCC4)c([N+](=O)[O-])c3)c3ccccc23)cc1", "Potency": "active: 23.1 µM"}
{"smiles": "CCN(CC)S(=O)(=O)c1cccc(NC(=O)CN(C)Cc2cccc(OC)c2)c1", "Potency": "inconclusive [inhibitor, single point]"}
{"smiles": "CCOC(=O)C1(CCOc2ccccc2)CCN(Cc2cccc(OCCO)c2)CC1", "Potency": "inconclusive [inhibitor, single point]"}
{"smiles": "COc1ccc(C2CC(=O)c3cnc(NC(=O)c4cccc(OC)c4)nc3C2)cc1", "note": "(stereo unspecified)", "Potency": "inconclusive [inhibitor, single point]"}
{"smiles": "O=C(NN1C(=O)/C(=C/c2cccnc2)SC1=S)C(c1ccccc1)c1ccccc1", "Potency": "inconclusive [inhibitor, single point]"}
{"smiles": "CCOC(=O)c1[nH]c(C)c(C(=O)N2CCCC(Nc3ccc(C)c(C)c3)C2)c1C", "note": "(stereo unspecified)", "Potency": "inactive"}
{"smiles": "Cc1cccc(OCc2nnc(SCC(=O)N(C(C)C)C(C)C)n2Cc2ccco2)c1C", "Potency": "inconclusive [inhibitor, single point]"}
{"smiles": "O=C(CN1CCOCC1)Nc1cccc(C(=O)Nc2cccc(C(F)(F)F)c2)c1", "Potency": "inactive"}
{"smiles": "CSc1ccccc1OCc1cc(C(=O)N(C)Cc2ccncn2)no1", "Potency": "inactive"}
{"smiles": "O=C(NCc1cccc(Cl)c1)c1ccc(NC(=O)N2CC3CCCN3c3ccccc32)cc1", "note": "(stereo unspecified)", "Potency": "active: 23.1 µM"}
{"smiles": "Oc1c(C(c2ccc(Cl)cc2Cl)N2CCN(c3ccccc3)CC2)sc2nc(-c3ccco3)nn12", "note": "(stereo unspecified)", "Potency": "inconclusive [inhibitor, single point]"}
{"smiles": "Cc1cc(NC(=O)c2cc(C(C)(C)C)oc2C)no1", "Potency": "inconclusive [inhibitor, single point]"}
{"smiles": "CCOC(=O)N(C)c1c(CC)nc2c(OCc3cccc(Cl)c3)cccn12", "Potency": "inconclusive [inhibitor, single point]"}
{"smiles": "CCN1CCN(c2ccc(N3CCN(S(=O)(=O)c4ccc(C)c([N+](=O)[O-])c4)CC3)nn2)CC1", "Potency": "inconclusive [inhibitor, single point]"}
{"smiles": "CCC1(c2ccccc2)C(=O)N=C(N)N(C#N)C1=O", "note": "(stereo unspecified)", "Potency": "inactive"}
{"smiles": "O=C(CN1CC(=O)Nc2ccccc21)Nc1ccc(F)c(F)c1", "Potency": "inactive"}
{"smiles": "CC(=O)N(c1ccc(C(C)C)cc1)C1C=CS(=O)(=O)C1", "note": "(stereo unspecified)", "Potency": "inactive"}
{"smiles": "COc1ccc(CN(Cc2ccco2)c2cnc(S(C)(=O)=O)nc2C(=O)Nc2ccc(C)c(Cl)c2)cc1", "Potency": "inconclusive [inhibitor, single point]"}
{"smiles": "COc1ccc(NC(=O)c2ccccc2)c([N+](=O)[O-])c1", "Potency": "inactive"}
{"smiles": "O=C(Nc1ccc2nc(SCC(=O)N3CCc4ccccc43)sc2c1)c1ccc(F)cc1", "Potency": "active: 10.3 µM"}
{"smiles": "COc1cccc(CN(C(=O)/C=C/c2ccc(Cl)cc2)C2CCS(=O)(=O)C2)c1", "note": "(stereo unspecified)", "Potency": "inconclusive [inhibitor, single point]"}
{"smiles": "COc1cc(O)c(C(CCN2CCCCC2)c2ccc3c(c2)OCO3)c(OC)c1", "note": "(stereo unspecified)", "Potency": "inconclusive [inhibitor, partial curve]"}
{"smiles": "CCCc1nc(SC)ncc1C(=O)N1CCN(c2ccc(Cl)cc2)CC1", "Potency": "inconclusive [inhibitor, single point]"}
{"smiles": "Cc1ccccc1NC(=O)c1ccco1", "Potency": "inactive"}
{"smiles": "COC(=O)c1sc(NC(=O)c2ccc(OC)cc2OC)nc1C", "Potency": "inactive"}
{"smiles": "CCCn1c(SCC(N)=O)nnc1C(C)C", "Potency": "inactive"}
{"smiles": "CC(=O)N1CCN(C(=O)c2cc(S(=O)(=O)N(C)c3ccc(F)cc3)ccc2Cl)CC1", "Potency": "inconclusive [inhibitor, single point]"}
